{"source": "the supplement of paper PMC11417369", "note": "The other results are listed elsewhere or left out.", "data": [{"tested_on": "PfAP2-HC AP2 domain (GST-tagged)", "test": "gcPBM binding intensity (ln(normalized median fluorescence intensity)); higher = stronger DNA binding", "method_in_brief": "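Probes on an Agilent 4 × 180k array were primer-extended, double-stranded and 36 bp long, taken from intergenic genomic regions, with negative controls added. GST-tagged P. falciparum DNA-binding domains from E. coli, about 25 μg on average, were applied to the array for 1 h in 1× PBS containing 1% milk, 0.2 mg/ml BSA, 0.5% salmon testes DNA and 0.03% Triton X-100. Binding intensity, obtained after Alexa488 anti-GST antibody detection and a 488 nm scan, is the highest Masliner-normalised natural-log median intensity across replicate spots of either probe orientation.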", "values": [{"sequence": "ATTAAAACAAATATGTGTACATAAAAATATATATAT [XGTACX_site8394]", "gcPBM binding intensity (ln)": 9.8}, {"sequence": "CTGTGTTTTGGTTGTACACACGCTACATTATATATT [CACACA_site5487]", "gcPBM binding intensity (ln)": 10.1}, {"sequence": "TATTTTATCATTTTTTTTATGTCTTTATTTCACTTG [CACACA_negctrl_site1398]", "gcPBM binding intensity (ln)": 9.68}, {"sequence": "ATATACATTAAATGAACACACATAAATAAATTACAT [CACACA_site2852]", "gcPBM binding intensity (ln)": 9.89}, {"sequence": "TTTTAATTTTGTTGTTGTACAAATAACATGTGAGGG [XGTACX_site4401]", "gcPBM binding intensity (ln)": 9.53}, {"sequence": "ATATATATATATATATCATTTATTTAAAAATTTTTT [TGCATGCA_negctrl_site228]", "gcPBM binding intensity (ln)": 9.42}, {"sequence": "CTCATTTTTGTACAGGTGCACTTATCGTTACACTAT", "gcPBM binding intensity (ln)": 9.93}, {"sequence": "AACACATAAAAAAGGTGTACCATAAAATATACATAC [XGTACX_site4478]", "gcPBM binding intensity (ln)": 9.86}, {"sequence": "ATATACACATTAATAACACACAATATGATAACAAAT [CACACA_site7670]", "gcPBM binding intensity (ln)": 10}, {"sequence": "TAGAATTAAGTTATTGCACACAGGAAAAGTTTCATA [CACACA_site1634]", "gcPBM binding intensity (ln)": 9.77}, {"sequence": "AATCCTTACGAACACACACACACGAATAAATAAAAA [CACACA_site6363]", "gcPBM binding intensity (ln)": 10.8}, {"sequence": "ATAAATAAGAAAAATTGTACAATATTTTTTAGGATA [XGTACX_site3163]", "gcPBM binding intensity (ln)": 9.69}, {"sequence": "TCTTCGAAACTATCACTCTCACAATTCATTTATTTT [TGCATGCA_negctrl_site156]", "gcPBM binding intensity (ln)": 9.82}, {"sequence": "AAAAGTTTAAGTTTTCGAAAATTTACCAAAAAAAAA [CACACA_negctrl_site1644]", "gcPBM binding intensity (ln)": 9.6}, {"sequence": "GTGCATAAATCATACACACACACATATATAAATATA [CACACA_site7188]", "gcPBM binding intensity (ln)": 10.7}, {"sequence": "GTGTTTTTATGTGAATGTACATATTTACTATCACAC [XGTACX_site2388]", "gcPBM binding intensity (ln)": 9.97}, {"sequence": "AAAGTTTTTATAAAAAAAAAAATAAATACCATATAT [XGTACX_negctrl_site113]", "gcPBM binding intensity (ln)": 10.1}, {"sequence": "TGGTAATCCACATACACACACACATACACATATATA [CACACA_site2727]", "gcPBM binding intensity (ln)": 10.3}, {"sequence": "AAGAAAAAAAAAATTACACACTGCGCAGATACACAA [CACACA_site1289]", "gcPBM binding intensity (ln)": 9.86}, {"sequence": "TAATATGTATATAAAAGTACAGACGATTATAATTAT [XGTACX_site173]", "gcPBM binding intensity (ln)": 9.81}, {"sequence": "TTTTGTAGATATGACTGTACATATTTTATACATAAC [XGTACX_site971]", "gcPBM binding intensity (ln)": 9.64}, {"sequence": "AAAAAATAAATAAATACACACAAATATATATATATA [CACACA_site2543]", "gcPBM binding intensity (ln)": 10.3}, {"sequence": "ATATATATATGTAAGAGTACACAAAAATATGTATGT [XGTACX_site4335]", "gcPBM binding intensity (ln)": 10}, {"sequence": "CACATACCTATATACACACACAAAATAATAAAATAA [CACACA_site7150]", "gcPBM binding intensity (ln)": 10.2}, {"sequence": "AGAATGGATTAGCTAGCACACACAAAAAAAAAAAAA [CACACA_site8995]", "gcPBM binding intensity (ln)": 9.84}, {"sequence": "ACTAATATTTTATAAAGTACAAATTAATAAAATTCA [XGTACX_site5817]", "gcPBM binding intensity (ln)": 9.42}, {"sequence": "TATATATATATATTGACACACATGTATTTCAATATT [CACACA_site2832]", "gcPBM binding intensity (ln)": 9.79}, {"sequence": "AAGACAACATAAATATGTACATATATTTATTATTTT [XGTACX_site1792]", "gcPBM binding intensity (ln)": 9.74}, {"sequence": "TACAAAAAGAATGAAAAATATATAATAAAAATAAAA [XGTACX_negctrl_site159]", "gcPBM binding intensity (ln)": 9.65}, {"sequence": "AAGTATGGAAAGGAATATAAATTAATACTTTCATTG [XGTACX_negctrl_site131]", "gcPBM binding intensity (ln)": 9.55}, {"sequence": "TCATAACAACTTTGTGTGCACATAAAACATGTATAT", "gcPBM binding intensity (ln)": 10.3}, {"sequence": "TTTTTTTTTTCATTCACACAAAAAAAAAAAATTTAT [CACACA_site5921]", "gcPBM binding intensity (ln)": 9.26}, {"sequence": "TATAAGACATGATATATACACACCTTGTTTTAATTT [CACACA_site2266]", "gcPBM binding intensity (ln)": 9.79}, {"sequence": "ATATGAATATATATATGTACTAATTAGTAGTTTACG [XGTACX_site6273]", "gcPBM binding intensity (ln)": 9.85}, {"sequence": "AATAAAAATATATCCACACACATATATATATATGTA [CACACA_site576]", "gcPBM binding intensity (ln)": 9.95}, {"sequence": "AGAAATTTACAAATACGTACACACATATATATATAT [XGTACX_site3141]", "gcPBM binding intensity (ln)": 10}, {"sequence": "GAAGATATGTAAAATTGTACATATTATTTTATTTTA [XGTACX_site5302]", "gcPBM binding intensity (ln)": 9.47}, {"sequence": "CTGATCCACATTTATACACACCTCGGTTTGTAGAGA [CACACA_site4393]", "gcPBM binding intensity (ln)": 9.67}, {"sequence": "AAAATATATAATATTTGTACATATTGATGGCAACAG [XGTACX_site6454]", "gcPBM binding intensity (ln)": 9.76}, {"sequence": "TTTTACACTTTTTTTTGTACACACTAAAAAGATTAA [XGTACX_site8407]", "gcPBM binding intensity (ln)": 9.65}, {"sequence": "AAAGGTTCATAAAAATGTACATAATTATTTACATGT [XGTACX_site2722]", "gcPBM binding intensity (ln)": 9.62}, {"sequence": "CAAATCATATATAGCACACAAATTCTTTATTATTAT [CACACA_site2815]", "gcPBM binding intensity (ln)": 9.71}, {"sequence": "CACAAAAATAAACACACACACATATATATTTATTAT [CACACA_site5923]", "gcPBM binding intensity (ln)": 11.1}, {"sequence": "TAAATTAAAAGACACACACACAAAAAAAAAAAAAAA [CACACA_site7131]", "gcPBM binding intensity (ln)": 10.2}, {"sequence": "GGAAACTAAAGGAATAAAACTATGGAAATTAATTAA [CACACA_negctrl_site1647]", "gcPBM binding intensity (ln)": 9.55}, {"sequence": "TACTATTTAAAATATGAACACACATTATTTGTTTTA [CACACA_site8870]", "gcPBM binding intensity (ln)": 9.72}, {"sequence": "AGATGATATAATGGCACACAAATATTTTATTATAAA [CACACA_site3553]", "gcPBM binding intensity (ln)": 9.8}, {"sequence": "TAAATTTATAAATCACGTACATATTTATTTATATTT [XGTACX_site4532]", "gcPBM binding intensity (ln)": 9.61}, {"sequence": "ATAATTTCATAATACGTGCACATAATATATAAAAAA", "gcPBM binding intensity (ln)": 9.74}, {"sequence": "ATTCAAAATTATAGGTGTACGTATTTTTTTTTTTTT [XGTACX_site7177]", "gcPBM binding intensity (ln)": 9.59}, {"sequence": "TAAATATAATAAGAACAAACAAAATAGTACAATATA [TGCATGCA_negctrl_site364]", "gcPBM binding intensity (ln)": 10.2}, {"sequence": "TTTTTTTTAAATTGTGGTACACAAATTCATATATAT [XGTACX_site8944]", "gcPBM binding intensity (ln)": 9.67}, {"sequence": "AAAAGAAAAAAAAGTACACACATGTATATTAATCGT [CACACA_site2528]", "gcPBM binding intensity (ln)": 10.1}, {"sequence": "GTCATATTATTATTACGTACTTAAATATATAATATA [XGTACX_site3405]", "gcPBM binding intensity (ln)": 9.73}, {"sequence": "TGTTAACTTAAAAAAATACCTACGGAAAAATCACAA [TGCATGCA_negctrl_site433]", "gcPBM binding intensity (ln)": 9.56}, {"sequence": "TATTTCGTAATTTAATAATATACAAGAAATATATAT [XGTACX_negctrl_site143]", "gcPBM binding intensity (ln)": 9.4}]}]}
